Measured values as given in the supplement of paper PMC11417369.
± gives the standard deviation of the averaged measurements. Some of the results follow.

Tested on: PfAP2-G AP2 domain (GST-tagged)
Assay: gcPBM binding intensity (ln(normalized median fluorescence intensity)); higher = stronger DNA binding
Method in brief: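 In this array assay, P. falciparum DNA-binding domains with a GST tag, expressed in E. coli, were applied for 1 h to primer-extended double-stranded 36-bp intergenic genomic probes and negative controls on an Agilent 4 × 180k array. Bound protein was visualised with Alexa488 anti-GST antibody at 488 nm. Binding intensity is the highest Masliner-normalised natural-log median intensity across replicate spots of either probe orientation.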

| Sequence | gcPBM binding intensity (ln) |
| --- | --- |
| TTTTTAATTATTTATATAACGATAATCCTTACATAA [TGCATGCA_negctrl_site180] | 9.635 ± 0.007 |
| ATATAATATATGTAAGTGCGCTTATAAATAAAACGA [GTGCAC_site9841] | 10.1 ± 0.19 |
| ATATATTGATATATGTGTACATAGCTTATTTCATTT [XGTACX_site1800] | 11.4 ± 0.84 |
| TATATAGAAAACAAGGCATGCAAATAACAAATTGTG [TGCATGCA_site473] | 10.2 ± 0.19 |
| ATATAATATATATGGTGTACATTTTTTAGTGCTATT [XGTACX_site1662] | 11.4 ± 0.76 |
| TCTTTTTTTTTTTATTGTACAAGAAAAGGAAAAAAT [XGTACX_site3717] | 11.1 ± 0.99 |
| ATATTTTTATATTAGTGTACTTATTATAATGTATAG [XGTACX_site8185] | 11.5 ± 1 |
| TAAAAGAATAAAAGTAGTACTTTTTTTTATATTAGA [XGTACX_site368] | 11.4 ± 0.93 |
| AAAAAGTGACTCCTTACACACTTTACATAATTTAGT [CACACA_site4606] | 10.2 ± 0.13 |
| ATATACACCGTTGAATGTACATAAATAATATTAATA [XGTACX_site2893] | 11.1 ± 0.57 |
| ATAATATGTAATATTACACACAATTCATCATTTTTT [CACACA_site3159] | 9.845 ± 0.092 |
| AGTACATTTTTTTTAATAGGAAAAAAAATATTTATT [TGCATGCA_negctrl_site575] | 10.5 ± 0.3 |
| AAGTATTATTTTTATGCATGTGAAGTGCAAAATAAA [TGCATGCA_site198] | 10.3 ± 0.28 |
| TAAATATATATATATGTACACACTCCAATACATATA [CACACA_site8858] | 11.3 ± 0.71 |
| TATATATATATTATATGTACATATTCCTATATATAC [XGTACX_site7071] | 11.3 ± 0.87 |
| ATAAAGATTTTCCAAGCATGCCACATAGTGAGATAC [TGCATGCA_site594] | 10.2 ± 0.16 |
| ATCATAAAAGTATACACACATACATACATATGTACA [CACACA_site2641] | 10.8 ± 0.45 |
| TTATATATTTTTACCATACACACATATAATAAATAT [CACACA_site3721] | 10.2 ± 0.17 |
| GCACATATATACATACATACATACATACATATGTAT [TGCATGCA_negctrl_site95] | 10.2 ± 0.16 |

| Sequence | gcPBM binding intensity (ln) |
| --- | --- |
| ACTTTATATTTTGAACGTACAAAAAAAAAATTATGT [XGTACX_site5588] | 11.3 ± 0.83 |
| AACCATTAATTCTCTACACACTTTTATTTTATTTAG [CACACA_site1769] | 9.98 ± 0.014 |
| ATTATGTTAAAAAGGCGTACATGTTATAAGGTCCTA [XGTACX_site344] | 11.7 ± 1.2 |
| TATATATAAAGAGAAACATGCAAAATGTGAATATTC [TGCATGCA_site377] | 9.86 ± 0.25 |
| AAGTATGCATTATATACACACATACATTTATATATT [CACACA_site4242] | 9.94 ± 0.17 |
| TTGGTTATACAACACATGCACACGTAAATAAATATT [CACACA_site3841] | 10.4 ± 0.22 |
| TTGTTCTAATATATTGCACACGTAAAAATATAGGTA [CACACA_site8195] | 10.4 ± 0.3 |
| TCCTTATAAATATATATATAATATATATATATATAT [CACACA_negctrl_site293] | 9.565 ± 0.049 |
| TATATATATATTTATACACACATTAGTGTAGACATG [CACACA_site8964] | 10.1 ± 0.16 |
| ATATAAATAAACAACTTTGTTGGCCTTCCAAAATAT [CACACA_negctrl_site1181] | 10.1 ± 0.13 |
| TTGAAGAATAAATATGCACACATGCATATATTTTTA [CACACA_site5840] | 9.69 ± 0.028 |
| CTCAAAAAATTTCATAGTACTTTAAAATACTATAAT [XGTACX_site1939] | 11 ± 0.72 |
| AATAAAAAAAAACGCACACACAAATATATTCCATTC [CACACA_site1224] | 10.21 ± 0.099 |
| ATATAAATATTAATTACACACAAAAAAAAAAAAAAA [CACACA_site6671] | 9.64 ± 0.38 |
| AATGGAAAAGGTAGTTGTACAACATGTTAAAATGGT [XGTACX_site1312] | 11.5 ± 0.67 |
| TTTTGTTCTAATATGGGAACATAAATATTAAATATA [CACACA_negctrl_site1787] | 10.2 ± 0.23 |
| TAATATAAAATGATAAATGAATGTGATCATTTTATA [CACACA_negctrl_site1034] | 9.62 ± 0.042 |
| ACATACTCAAATAGCACACACATAAATAAAAATGTA [CACACA_site3864] | 10.2 ± 0.33 |
| TATATATATAAATGAATGCACTTTAGAAAAAAGTAC | 10.8 ± 0.42 |

| Sequence | gcPBM binding intensity (ln) |
| --- | --- |
| ATATATATTATAATAACACACATATATTATATTATA [CACACA_site406] | 9.88 ± 0.23 |
| ATAAAATAAAACAACACACACGAATGTATAAATATA [CACACA_site4643] | 10.04 ± 0.021 |
| AATAAAATACAAAAATGTACAAATATAATATACATA [XGTACX_site279] | 10.7 ± 0.48 |
| TAATAATATAAATATGCACACAAATTATTACCCAAA [CACACA_site8805] | 10.3 ± 0.36 |
| TAGATATATAGAATTACACACTTTTCTATAATATGA [CACACA_site6475] | 9.58 ± 0.2 |
| ATTACAAAAATATATAAACACACAAATATAATATAT [CACACA_site8962] | 9.88 ± 0.12 |
| ATATATATTTAAAACGCATGCCTTGTTATATATATA [TGCATGCA_site624] | 9.655 ± 0.078 |
| CATATATATTTTATATGTACATATATATTTTATATA [XGTACX_site8665] | 11.2 ± 0.73 |
| ATATATATAATTTGTACACACAAATATGCATATATA [CACACA_site3432] | 11.3 ± 0.98 |
| AAATAATTTATATATTGTACAAATATTAAATGCGAA [XGTACX_site3390] | 10.8 ± 0.35 |
| TTTAAAAAAATGAAATAAAAAAAAAATAAAATAAAA [XGTACX_negctrl_site316] | 9.53 ± 0.18 |
| TTTTTTTTTTTCAGTTGTACATTGGGAAAATATATA [XGTACX_site4416] | 11 ± 0.61 |
| AGTCTGAATAAAATTACACACATATACCTATAAATA [CACACA_site6929] | 9.975 ± 0.035 |
| AGATATTTTTCTTAAGTACACACTAAATAGAAACTA [CACACA_site44] | 11.3 ± 0.9 |
| TACCAAAAAAAAAAAAAAAATTAAATAAATATGAAA [TGCATGCA_negctrl_site383] | 9.27 ± 0.11 |
| ACATTTATATATAATTGTACCCTACATTCTCTTTTT [XGTACX_site189] | 11.1 ± 0.57 |
| AAAAATATATAAACACGTACACACACATATATGTAT [XGTACX_site7436] | 11.6 ± 0.88 |
| ATATATATATATTATGTGCGCATATACCATTTTAAT [GTGCAC_site9575] | 10.3 ± 0.23 |
